# Experimental data: the supplement of paper PMC3334620
# The full ranking holds about 33,000 sequences; the median of “E-score (-0.5 to 0.5)” is about -0.041, and the highest 2% start at about 0.37. The list shows a part of the results.
# Molecular target: T1, Ecm22 (UniProt Q05958)
# T1 sequence: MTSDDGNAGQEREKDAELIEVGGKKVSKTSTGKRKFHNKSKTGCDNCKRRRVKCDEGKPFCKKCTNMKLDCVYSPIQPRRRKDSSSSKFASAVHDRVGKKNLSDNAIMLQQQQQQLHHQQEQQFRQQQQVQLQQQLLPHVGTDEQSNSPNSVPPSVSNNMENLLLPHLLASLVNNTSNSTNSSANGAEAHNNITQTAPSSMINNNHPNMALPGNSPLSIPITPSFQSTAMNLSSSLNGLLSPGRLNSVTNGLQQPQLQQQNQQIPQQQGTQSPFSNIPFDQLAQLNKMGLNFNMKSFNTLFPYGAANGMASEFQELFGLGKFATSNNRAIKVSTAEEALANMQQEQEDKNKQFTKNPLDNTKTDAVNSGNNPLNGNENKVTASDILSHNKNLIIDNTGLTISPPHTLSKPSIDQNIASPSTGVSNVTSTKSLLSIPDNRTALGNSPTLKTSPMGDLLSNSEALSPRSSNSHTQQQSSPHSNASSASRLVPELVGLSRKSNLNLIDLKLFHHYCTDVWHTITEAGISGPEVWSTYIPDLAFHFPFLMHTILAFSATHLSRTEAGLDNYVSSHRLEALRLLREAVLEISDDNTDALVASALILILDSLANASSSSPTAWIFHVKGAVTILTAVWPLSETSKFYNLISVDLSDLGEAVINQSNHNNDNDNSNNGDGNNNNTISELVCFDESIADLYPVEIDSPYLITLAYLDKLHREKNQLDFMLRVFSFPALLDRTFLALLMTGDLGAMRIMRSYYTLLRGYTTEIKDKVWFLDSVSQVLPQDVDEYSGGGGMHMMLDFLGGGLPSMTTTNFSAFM
# Assay: PBM E-score (8-mer binding enrichment) (E-score (-0.5 to 0.5)); higher = stronger / more preferred TF binding; most listed sequences are background and not binding sites
# Settings: protein concentration: 200 nM; construct: GST-full length
# How it was run: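 Masliner-normalised scans of fluorescent anti-GST signal were the basis for scoring. That signal came from GST-tagged yeast transcription factors applied at about 100-200 nM to double-stranded universal all-10-mer Agilent arrays on fresh or once-stripped slides. Each ungapped eight-base word, pooled with its reverse complement, received an E-score from the Universal PBM Analysis Suite.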
row,Sequence,PBM E-score
1,TGGATAAA,-0.058
2,ACACACCC,0.133
3,CGTTGTCC,0.0485
4,CCCGGGAC,-0.168
5,CTTGTGTC,-0.0755
6,TCACAAAA,-0.069
7,GGTTCTAA,-0.0461
8,CATTACAC,0.149
9,CGATATGC,0.188
10,CCTCTTTC,-0.118
11,GTCCACCA,-0.285
12,GCGTGAGC,0.0632
13,CAGTTTGG,-0.162
14,AGTAGTCC,-0.132
15,AATTCTTC,0.127
16,CTCTAGTA,-0.162
17,ACCACGAT,0.0854
18,GCTCGTGA,0.171
19,CTCTAACA,-0.0398
20,AAGTGGCG,0.0989
21,CTGAAGGA,-0.271
22,CATTCTGG,-0.203
23,AATGAATG,-0.121
24,CTAAAACA,-0.128
25,AGACTCAA,-0.127

row,Sequence,PBM E-score
1,CTTAGAAC,-0.0274
2,CATTAGAG,-0.0844
3,CCTCGGTC,0.298
4,ACCCACCA,-0.146
5,CATCCGGA,-0.18
6,ATGTCGAA,-0.0588
7,GGGGCGGA,-0.199
8,TACACTCA,0.0127
9,AATTAAAA,0.0435
10,CATACACA,-0.126
11,ACGTTTAC,0.304
12,ATTCCCGA,0.033
13,TGTTTTAA,-0.0835
14,CGAATGGA,0.103
15,ACTCGTAG,0.34
16,AGACCGCG,0.0449
17,ACAATTAC,0.0827
18,TCTAAGAA,-0.0349
19,AACCCCTA,-0.276
20,GCCAGCGC,-0.232
21,ATACTTGA,-0.109
22,AGAGATAG,0.0862
23,GCCGGGCA,-0.124
24,ACTTTGGG,-0.263
25,AAGGTACG,0.434

row,Sequence,PBM E-score
1,GTGAATGA,-0.134
2,CAGACTGC,-0.101
3,AGAGCCTG,-0.193
4,GCAATGCA,0.0156
5,ACTGGTTG,-0.0604
6,ATCAACGG,0.0633
7,CAGATACC,-0.282
8,AGCCGATC,0.0302
9,CCTATCAG,-0.232
10,GAAAATGC,-0.00808
11,AGTCAGAC,-0.0851
12,CCACCTGG,-0.313
13,ATTTGTGC,-0.0226
14,ATGTTTCG,0.116
15,CGTGGTAA,-0.0242
16,ATCCACCG,0.0177
17,CCCTTGAA,-0.0885
18,TAAGGAGA,-0.106
19,ACCGCTAT,-0.0538
20,GACCACAA,-0.201
21,GTCGCTGA,-0.073
22,AATGGTAG,0.0904
23,CCAATTAC,0.0428
24,GTACTAAC,0.169
25,CATCAAGG,-0.171

row,Sequence,PBM E-score
1,ACATACAG,-0.0999
2,GAGACTAC,0.00043
3,AAGACTGA,-0.196
4,CCGAAAAC,0.128
5,ACCTACAG,-0.212
6,CTCCGTGA,-0.236
7,ATCCCGCA,-0.133
8,AACCGTCG,0.225
9,CCTATGCG,0.0825
10,CATCGTGC,0.164
11,AAAAGCGA,0.245
12,GTCCTTGA,-0.132
13,CTAACTGC,-0.21
14,CGCAGAGC,-0.0819
15,ATGCCCCC,-0.179
16,AACCCCCC,-0.327
17,GCATCTTA,0.13
18,ACCCTTTA,-0.0827
19,CAATATCG,0.0678
20,ACGGCAAA,0.129
21,AGCCCCCC,-0.0476
22,GCTTAGGA,-0.0432
23,ATTATAAG,-0.0121
24,GAGGGCAC,-0.206
25,CCATTACA,0.146

row,Sequence,PBM E-score
1,CGGAGCCA,-0.204
2,CATTTCGA,0.028
3,CTGGAATC,-0.256
4,GAGCGGGA,0.0208
5,TCATTGAA,0.0985
6,GGGCACAC,-0.239
7,CACAGGCC,-0.2
8,CCGGAAGG,-0.19
9,AAGCCAAA,-0.0424
10,ACGTTGAG,-0.171
11,AACTATGC,0.144
12,CTTTAACC,0.03
13,ATAAACTG,0.0158
14,CATAGCCC,-0.286
15,TAGAATAA,-0.00277
16,AAATTATA,0.117
17,CATCTGGC,-0.0688
18,CTCAGTAA,-0.0628
19,CTGGCCGC,-0.366
20,GAATAAGA,0.122
21,CTTGGTGA,-0.144
22,AATTAAGC,0.183
23,CCTGAGTA,-0.185
24,AAATGCTG,-0.0824
25,AGCGATGG,0.103

row,Sequence,PBM E-score
1,ATCAGACA,-0.218
2,AACTTGCG,0.164
3,CTAGTTAC,0.0198
4,AAGGATTA,-0.224
5,GTACATTA,0.225
6,AGGTTGAC,-0.232
7,CAGGTGAG,-0.231
8,GGCAATGA,-0.153
9,GAGTCGCA,0.133
10,AAAGTTTC,-0.0781
11,CAAGTACA,-0.0498
12,CACGCTGG,-0.0967
13,CTGACTTC,-0.111
14,GGCCCCAC,-0.233
15,AGCAACCG,-0.0179
16,CATCAGGG,-0.235
17,ACCCTCCA,-0.244
18,GGTGATTA,-0.0496
19,AACGGGCT,0.16
20,CCGATCCA,-0.0928
21,AATCGGCC,-0.138
22,AAACCTGT,0.131
23,ACATATTC,-0.0732
24,CAGACGGA,-0.108
25,ACTAGCAT,-0.156

row,Sequence,PBM E-score
1,CGCATACC,0.16
2,AGGCGTAA,-0.113
3,AAGGCATG,-0.12
4,ACCTGCAT,-0.193
5,CTAATAAG,0.00651
6,AGGCAGTC,-0.106
7,GGTCCGCA,0.0486
8,ATCCTCAT,-0.0712
9,CCAACGTC,0.0163
10,CCTTCTCC,-0.0973
11,CTCAATTA,-0.0205
12,AACGAAGC,0.437
13,CGACACGA,0.282
14,GTAAGGAA,-0.0539
15,CGAGCGAG,0.343
16,ACCCCGTG,-0.0297
17,CCGCTGGA,-0.133
18,CGTAATAC,0.296
19,ATTATTCG,0.263
20,GTAGCATA,0.131
21,TTAAAAAA,-0.0298
22,CATGTGCC,-0.153
23,CCGTATCC,0.337
24,ATCCACGG,0.0268
25,GTCCCGTA,0.273

row,Sequence,PBM E-score
1,CACACTAC,-0.0812
2,AATTTAAC,0.196
3,AGTTTGTG,-0.0389
4,CTCATGAA,0.0381
5,ATAAACAA,-0.0236
6,AGGGATAT,-0.212
7,CTCCTTCA,-0.106
8,CAGGGGCA,-0.0769
9,CCCATGGC,-0.24
10,GTCAAACA,0.0372
11,AATTTGCA,-0.215
12,GCGTAACA,0.00254
13,CATGGTGG,-0.241
14,CGTATTCC,0.324
15,GCAGACCC,-0.226
16,AATCTTAC,0.166
17,AGTCCATA,-0.276
18,CGGCAGCC,-0.176
19,ACTCGGCT,0.112
20,GATCCGAC,0.172
21,CACGAGCC,0.143
22,AAGTTTGA,-0.2
23,AGCTTGCA,-0.176
24,AGTCTTAC,0.0552
25,ACGTCCGA,0.0712

row,Sequence,PBM E-score
1,AAGATGTC,-0.115
2,AATCGTGT,0.148
3,AAGCACAT,-0.0748
4,CTTTCCAA,-0.1
5,AGACGTCA,-0.0631
6,AACTCGGA,0.0857
7,ACAATTTA,-0.145
8,AACGCACG,0.256
9,GAATCTGA,-0.0472
10,TCACACAA,-0.0846
11,CTCCAGGC,-0.212
12,CTTGCGGC,-0.0719
13,GGCAGCAA,-0.13
14,AATCCCGG,-0.105
15,GGCCGGCC,-0.148
16,ACACCCTC,-0.0269
17,ATGCGACA,0.256
18,GCGAACGA,0.397
19,CTTCTGCA,-0.113
